Experimental data reported in PubChem BioAssay AID485281 (National Center for Advancing Translational Sciences (NCATS), 2010).
Several values for one entry are separate records, joined by “and”; a condition that tells them apart may be missing. Equal values may be shown once. Hit rate of the full screen: of about 350,000 compounds, about 260 (0.074%) were called active. The shares of active, inactive and inconclusive entries below differ from those in the screen. The call rests on the fitted dose curve; in most records, active means well fitted inhibition curve with a large enough effect; inconclusive means small, poorly fitted or top-dose-only effect; inactive means no such curve, though single readings can be large or run the other way. Where the call is inconclusive, the potency comes from a doubtful curve fit.

Biological target: Ferritin light chain (Equus caballus) (UniProt P02791)
Assay: qHTS Assay for Identification of Novel General Anesthetics; further: nearly all actives have a fitted effect of over 20% in size
Conditions: apoferritin/1-aminoanthracene competitive binding, fluorescence; activity change, negative = displacement: at 77.5 µM (top of the series)
Procedure, shortened: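 In PBS, apoferritin at 10 uM is loaded with 1-AMA from a 50% saturated solution. After 10 min of compound exposure at ambient temperature, reduced 535 nm fluorescence indicates probe displacement.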
On the % scale 0 is the no-effect control and ±100 the full control effect; potency means the concentration at half of the fitted maximal effect; tags describe the fitted curve by direction and shape.

Sequence of UniProt P02791 (P02791 whole entry, looked up): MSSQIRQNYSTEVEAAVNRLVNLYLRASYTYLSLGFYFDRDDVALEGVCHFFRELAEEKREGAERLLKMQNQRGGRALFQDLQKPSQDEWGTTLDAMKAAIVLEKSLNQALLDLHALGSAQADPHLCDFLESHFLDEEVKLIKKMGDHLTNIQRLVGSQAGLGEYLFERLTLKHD

Potency, inconclusive:
Cc1ccccc1Cn1nc(C)c(NC(=O)c2cc(-c3cccs3)on2)c1C 11.2 µM [inhibitor, partial curve]
CCN1CCN(CCNC(=O)c2ccc(/C=C3/Sc4ccccc4N(Cc4ccccc4C)C3=O)cc2)CC1 35.5 µM [inhibitor, partial curve]
CCC(C)c1ccc(NC(=S)Nc2ccc(OC)c(OC)c2)cc1 (stereo unspecified) 28.2 µM [inhibitor, single point]
Cc1nn(C)c2c1c(C(F)(F)F)cc(=O)n2CC(=O)N1CCN(c2ccccc2F)CC1 50.1 µM [inhibitor, single point]
CCNc1sc(C(=O)c2cccs2)c(N)c1-c1nc2ccccc2s1 22.4 µM [inhibitor, partial curve]
O=C(Oc1cccc2c(O)cccc12)c1ccccc1 35.5 µM [inhibitor, partial curve]
COc1cc(OC)c2c(-c3ccccc3)cc(=O)oc2c1C(CC(=O)N1CCCC1)c1ccc(N(C)C)cc1 (stereo unspecified) 31.6 µM [inhibitor, partial curve]
O=S(=O)(c1ccc2ccccc2c1)N1CCCCC1 28.2 µM [inhibitor, partial curve]
Cc1ccc(OC/C(=N\O)C(C)(C)C)c([N+](=O)[O-])c1 10 µM [inhibitor, partial curve]
O=C(COC(=O)COc1ccccc1)Nc1ccc(OC(F)(F)F)cc1 28.2 µM [inhibitor, partial curve]
O=C(CC1S/C(=N/N=C2CCCCCC2)NC1=O)Nc1ccc(Br)cc1F (stereo unspecified) 39.8 µM [inhibitor, partial curve]
N/C(=N\OC(=O)Cc1ccccc1[N+](=O)[O-])c1cccc(Br)c1 15.8 µM [inhibitor, partial curve]
CC1C(=O)C(C)C(c2ccco2)NC1c1ccco1 (stereo unspecified) 11.2 µM [inhibitor, partial curve]
COc1ccccc1-n1cnc2cc(NS(=O)(=O)c3ccc(Br)cc3)ccc21 1.26 µM [inhibitor, full curve, poor fit]
CN(C1CCCCC1)S(=O)(=O)c1ccc2c(c1)c(=O)c(C(=O)NCCN1CCCC1)cn2C 20 µM [inhibitor, partial curve]
CCCc1cc(=O)[nH]c(SCc2nc3ccccc3s2)n1 28.2 µM [inhibitor, partial curve]
CCCCCC(=O)NNC1=NCC(Cc2cccc(Cl)c2)S1 (stereo unspecified) 35.5 µM [inhibitor, partial curve]
COc1ccc(Cn2ccc3nc(C)c(C(=O)NCc4ccc(C)cc4)cc3c2=O)cc1 56.2 µM [inhibitor, single point]
CCOc1cc(/C=N/NC(=O)Cc2ccc(C(F)(F)F)cc2[N+](=O)[O-])ccc1O 39.8 µM [inhibitor, single point]
CCOC(=O)Cc1c[nH]c2ccccc12 28.2 µM [inhibitor, partial curve]
Cc1ccc(CNC(=O)C(=O)NCC2OCCCN2S(=O)(=O)c2cccs2)cc1 (stereo unspecified) 25.1 µM [inhibitor, single point]
N=C(N)SCc1nc2ccccc2c(=O)n1-c1ccccc1 44.7 µM [inhibitor, single point]
CCOC(=O)c1cnc2ccc(OC)cc2c1Nc1ccc2c(c1)OCCO2 20 µM [inhibitor, partial curve]
O=C(NCc1ccc(Cl)cc1)c1cnn2ccccc12 35.5 µM [inhibitor, partial curve]
COc1cccc(NC(=O)CC2COc3ccccc3O2)c1 (stereo unspecified) 28.2 µM [inhibitor, single point]
O=C(Nc1ccc(S(=O)(=O)N2CCCCC2)cc1)c1ccncc1 35.5 µM [inhibitor, partial curve]
COc1ccc(N(CC(=O)N2CCN(c3ccc(F)cc3)CC2)S(=O)(=O)c2c(C)n[nH]c2C)cc1 25.1 µM [inhibitor, partial curve]
CC(C)(C)c1cc(/C=N/O)cc(C(C)(C)C)c1O 31.6 µM [inhibitor, partial curve]
NS(=O)(=O)c1cccc(NC(=O)CNC(=O)CC23CC4CC(CC(C4)C2)C3)c1 14.1 µM [inhibitor, partial curve]
Cc1ccc(CNC(=O)CSc2nc3n[nH]c(C)c3c(=N)n2-c2cccc(C)c2)cc1 17.8 µM [inhibitor, partial curve] and 8.91 µM [inhibitor, full curve]
CCCCNc1nc2c(c(=O)n(Cc3ccc(Cl)c(Cl)c3)c(=O)n2C)n1C 6.31 µM [inhibitor, full curve]
Cc1ccc(CNC(=O)c2cccc(-n3cnc4cccnc43)c2)cc1 35.5 µM [inhibitor, partial curve]
COc1ccc(OCc2cc(C(=O)N(C)CCC3CCOCC3)no2)c(Cl)c1 31.6 µM [inhibitor, partial curve]

Potency, active:
Cn1cc([N+](=O)[O-])c(C(=O)Nc2ccc(C3CCCCC3)cc2)n1 7.94 µM

Activity change, negative = displacement, inactive:
COc1cccc(-c2nnc(-c3ccc(C(F)(F)F)cc3)o2)c1 -0.826%
Cc1ccn(CC(=O)N2CCCC(N3CCN(c4ccccc4F)CC3)C2)n1 (stereo unspecified) -9.86%
Cc1ccc2cc(C#N)c(NCCNC(=O)C3CC3)nc2c1C -2.63%
O=C(Nc1c(Cl)cccc1Cl)c1cc(-c2cccc(O)c2)on1 0.796%
COc1ccc(NC(=O)c2cc(S(=O)(=O)N3CCCC3)c[nH]2)cc1 -11.5%
COc1cc(OC)cc(-c2cc3nc(C)c(CCC(=O)NC(C)CCc4ccco4)c(C)n3n2)c1 (stereo unspecified) -0.808%
COc1ccc(NC(=O)C2CCCN(S(=O)(=O)c3ccc4c(c3)CC(C)N4C(C)=O)C2)cc1 (stereo unspecified) -19.8%
